Measurements taken from paper PMC4336329 (PLoS ONE, 2015).
Among all 310,000 compounds or so, about 2,200 (0.71%) showed an effect of 50% or more. Effects have a minus sign here. Some of the results follow.

molecular target: human ether-à-go-go-related gene (hERG) potassium channel (human, UniProt Q12809); test: primary screen, population patch clamp on CHO cells stably expressing hERG
Sequence (Q12809 whole entry, looked up): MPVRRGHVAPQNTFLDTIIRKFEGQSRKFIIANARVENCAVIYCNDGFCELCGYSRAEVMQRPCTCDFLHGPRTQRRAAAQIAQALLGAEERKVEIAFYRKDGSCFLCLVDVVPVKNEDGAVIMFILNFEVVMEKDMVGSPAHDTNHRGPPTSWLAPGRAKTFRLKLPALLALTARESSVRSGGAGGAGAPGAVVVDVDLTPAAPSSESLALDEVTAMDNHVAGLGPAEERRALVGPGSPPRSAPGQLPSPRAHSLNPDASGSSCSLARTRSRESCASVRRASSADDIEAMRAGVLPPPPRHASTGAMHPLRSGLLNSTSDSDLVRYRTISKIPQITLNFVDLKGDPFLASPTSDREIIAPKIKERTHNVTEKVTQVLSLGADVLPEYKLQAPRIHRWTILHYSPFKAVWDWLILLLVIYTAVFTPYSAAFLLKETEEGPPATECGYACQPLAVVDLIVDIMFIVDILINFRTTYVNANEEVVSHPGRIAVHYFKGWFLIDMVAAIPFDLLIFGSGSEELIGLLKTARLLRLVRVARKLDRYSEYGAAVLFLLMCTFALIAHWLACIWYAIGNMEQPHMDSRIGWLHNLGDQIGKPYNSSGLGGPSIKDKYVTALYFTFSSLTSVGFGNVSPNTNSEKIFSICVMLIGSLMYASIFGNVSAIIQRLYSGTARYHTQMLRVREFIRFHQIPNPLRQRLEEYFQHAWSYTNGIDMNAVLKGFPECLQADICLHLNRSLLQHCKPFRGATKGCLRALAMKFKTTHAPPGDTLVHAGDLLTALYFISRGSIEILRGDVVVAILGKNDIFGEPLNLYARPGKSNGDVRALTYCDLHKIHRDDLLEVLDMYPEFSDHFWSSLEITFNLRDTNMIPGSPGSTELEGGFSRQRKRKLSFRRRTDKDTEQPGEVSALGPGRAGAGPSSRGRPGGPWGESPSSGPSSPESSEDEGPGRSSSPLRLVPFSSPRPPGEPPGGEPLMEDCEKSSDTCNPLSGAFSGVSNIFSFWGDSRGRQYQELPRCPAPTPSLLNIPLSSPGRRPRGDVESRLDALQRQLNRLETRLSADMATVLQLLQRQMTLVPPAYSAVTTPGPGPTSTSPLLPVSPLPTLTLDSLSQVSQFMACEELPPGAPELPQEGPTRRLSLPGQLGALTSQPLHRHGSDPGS

SMILES | hERG current change (%, negative = inhibition) at 1uM [%]
COc1ccc(Cc2nc3ccccc3n2CC(=O)N/N=C/c2ccc(C)cc2O)cc1OC | 11.4
NC(=O)CCC(NS(=O)(=O)c1ccc(Cl)cc1)C(=O)NCc1ccc(Cl)cc1 (centres unmarked) | -3.5
COC(=O)/C(C#N)=C1/SC=C(C)N1c1ccccc1 | 1.4
CCCOC(=O)C(C)n1cnc2scc(-c3ccc(C)cc3)c2c1=O (centres unmarked) | 12.5
CCOC(=O)N1CCC(NC(=O)Cn2cccc2C(=O)c2ccccc2C)CC1 | 10.2
O=C(c1ccc(Cl)cc1)C(Cn1cncn1)C(Sc1ccccc1)c1ccccc1 (centres unmarked) | 9.35
COc1cccc(C2c3[nH]c4ccccc4c3C[C@H]3C(=O)N(C)CC(=O)N23)c1 (some centres unmarked) | -1.14
COC(=O)c1ccccc1NC(=O)C1CCCN(S(=O)(=O)c2ccccc2)C1 (centres unmarked) | -1.53
COc1ccc(COCCN2CCN(S(=O)(=O)c3ccccc3)CCC2=O)cc1 | 5.1
O=C(CSc1nnc(-c2cccnc2)n1CCc1ccccc1)NCc1ccccc1 | -8.23
CCCCC(=O)c1ccc(O)cc1 | -11.4
O=C(Nc1nc(-c2ccc3c(c2)OCCO3)cs1)c1ccc(S(=O)(=O)N2CCCCC2)cc1 | 20.9
CCOC(=O)CNC(=O)CSc1nnc(COc2ccc(Cl)cc2)n1CC | 10.8
Cc1ccc(OCC(=O)OCC(=O)c2c(N)n(C)c(=O)n(C)c2=O)cc1C | -2.96
Cc1occc1-c1nnc(SCC(=O)c2c[nH]c3ccccc23)n1C | 12.1
CCOc1ccc(C(=O)N2CCCN(C(=O)c3ccc(OCC)cc3)CC2)cc1 | -69.3
CCc1nnc(NC(=O)CCC(=O)N2CCC(Cc3ccccc3)CC2)s1 | -12.3
COc1ccc(NC(=O)Nc2c(SC)nsc2SC)cc1 | 14.6
CCN(C(=O)COC(=O)Cc1ccc(F)cc1)c1c(N)n(Cc2ccccc2)c(=O)[nH]c1=O | 4.1
COc1ccccc1N1C(=O)C(=O)N(C)C1=O | 17.2
O=C(O)CNC(=S)N(Cc1ccccc1F)C1CCCCC1 | 8.71
O=C(/C=C/c1cccc(Cl)c1)NCCc1ccccc1 | 6.8
O=C(Nc1ccc(Cl)cc1C(F)(F)F)c1ccccc1 | 12

SMILES | hERG current change (%, negative = inhibition) at 1uM [%]
Cc1cc(C)cc(N(CC(=O)NC2CCCC2)C(=O)CNC(=O)c2cccs2)c1 | 13.8
COc1ccc(NC(=O)N2C[C@@H]3C[C@@H](C2)c2cccc(=O)n2C3)cc1 | 10.9
Cc1ccc(S(=O)(=O)N(CC(=O)c2ccc(Cl)cc2)C(=O)N2CCN(C)CC2)cc1 | 17
Cl.N=c1ccn(Cc2ccc(F)cc2)cc1 | 15
CCCCC(=O)Nc1nnc(S(=O)(=O)N(CC)c2ccccc2)s1 | 19
COC(=O)CN1C(=O)Nc2ccc(Br)cc2C1c1ccccc1 (centres unmarked) | 10.2
COC(=O)c1ccc(CNC(=O)N2CCN(S(=O)(=O)c3ccc(C)cc3)CC2)cc1 | 15.7
COc1ccc2c(c1)C(=O)N(c1ccc(C)cc1)C(=O)C2 | 14.1
O=C(NCCN1CCOCC1)c1ccc(Cl)c(S(=O)(=O)N2CCOCC2)c1 | 11.7
Cn1ncc2c(N3CCN(c4ccccc4F)CC3)ncnc21 | 11.6
CC(=O)N1CCN(C(=S)c2ccc(-c3ccc(Cl)cc3)o2)CC1 | 9.21
COc1cc(C(=O)N2C[C@@H]3CCC[C@H]2C3)ccc1OC1CCN(C(C)=O)CC1 | 22.9
OCC1CCCN(C(=S)NCCc2ccccc2)C1 (centres unmarked) | 5.71
O=C(Cn1ccccc1=O)c1ccc(Cl)cc1 | 17.8
CCn1c(CC(=O)Nc2ccccc2)nnc1SCC(=O)Nc1ccccc1C(=O)OC | 15.1
O=C(CNC(=O)c1ccc(Br)cc1)NC1=NCCS1 | 10.3
Cc1nnc(C)n1/N=C/c1ccccc1 | 11.3
C=CCn1c(SCc2cccnc2)nnc1-c1ccncc1 | 4.24
CC(C)C[C@@H](CSc1ccc(Br)cc1)N1CCN(CC(C)C)CCC1=O | -21.1
Cc1oc(C(N)=O)nc1-c1ccccc1 | 16.2
COc1cccc(CNC(=O)C2CCCN(S(=O)(=O)c3cnc[nH]3)C2)c1 (centres unmarked) | -4.42
CC(=O)N1CCc2cc(S(=O)(=O)NC(C(=O)Nc3nc(C)cs3)C(C)C)ccc21 (centres unmarked) | 9.73
COc1ccccc1NC(=O)CSc1nncn1-c1ccccc1 | 14.8

SMILES | hERG current change (%, negative = inhibition) at 1uM [%]
Cc1ccc(/C=C2/C(=O)N=C(N)N2C)s1 | 9.03
C=CCNC(=S)NNC(=O)c1cc(-c2cccnc2)nc2ccccc12 | 16.5
CCN(CC)C(=O)c1ccc2c(c1)N(Cc1ccccc1)C(=O)CS2=O (centres unmarked) | 9.17
CCN1C(=O)CC(NNC(=O)c2ccc(Cl)cc2)C1=O (centres unmarked) | 13.5
O=C1CN=C(c2ccccc2)c2ccccc2N1Cc1ccc(C(F)(F)F)cc1 | 3.04
O=C1NC(=S)NC(=O)C1C/C=C/c1ccccc1 | 7.81
CCS(=O)(=O)c1nc(S(=O)(=O)c2ccc(Cl)cc2)c(N2CCc3ccccc3C2)s1 | 16.9
Cc1ccc(NC(=O)CSc2nn(-c3ccc(Cl)cc3)c(=S)s2)cc1S(=O)(=O)N(C)C | 6.46
CCN1CCN(CCCN(Cc2ccco2)C(=S)Nc2cc(Cl)ccc2C)CC1 | -10.5
CC1Sc2ccc(S(=O)(=O)CCC(=O)N3CCc4ccccc43)cc2NC1=O (centres unmarked) | 15.9
CC(C)NS(=O)(=O)c1ccc(CCC(=O)O)cc1 | 7.71
Cc1cccc(C(=O)NN2C(=O)C3C(c4ccccc4)C=CC(c4ccccc4)C3C2=O)c1 (centres unmarked) | -7.68
O=C(COC(=O)c1cc([N+](=O)[O-])ccc1N1CCOCC1)c1ccc(F)cc1 | 4.23
S=C(Nc1ccccc1Cl)N1CCN(c2ccccn2)CC1 | 15.5
CN(c1ccccc1)S(=O)(=O)c1cc(C(=O)c2nccn2C)ccc1Cl | 7.66
O=C(Nc1ccc(Cl)c([N+](=O)[O-])c1)c1ccco1 | 9.65
Cc1cc(NC(=O)c2cccc([N+](=O)[O-])c2)no1 | 11.5
COc1ccc(-c2[nH]nc3oc(=O)c(CCO)c(C)c23)cc1.O=C(O)C(=O)O | 13.2
CC[N+](CC)(CC(=O)Nc1c(C)cccc1C)Cc1ccccc1.O=C([O-])c1ccccc1 | 15.2
O=C(Nc1cccc(Cl)c1Cl)c1ccc(-c2ccccc2)cc1 | 8.8
CCc1ccccc1N(CC(=O)NC1CCCCC1)C(=O)CCCC(=O)Nc1ccccn1 | 2.25
CCN1CCc2c(OCc3ccccc3)cccc2C1=O | 2.81
COC(=O)C1CCN(Cc2cn(Cc3ccccc3)nc2-c2cc3ccccc3o2)CC1 | -33.8

SMILES | hERG current change (%, negative = inhibition) at 1uM [%]
NCc1oc(-c2ccccc2)cc1C(=O)O | 14.2
COc1ccc(C2=CC(c3c(C)nn(-c4ccccc4)c3Cl)n3nnnc3N2)cc1OC (centres unmarked) | 14.6
Cc1cc(C)cc(N2C(=O)CCN(Cc3ccccc3)C2=O)c1 | 15.2
COc1ccc2cc(-c3nc4ccccc4n3C)c(=O)oc2c1 | 9.35
Cc1ccc(NC(=O)CN(C)Cc2cc(=O)n3ccsc3n2)cc1 | 8.42
CN(CC(=O)Nc1ccc(F)cc1)C(=O)c1cc2c(s1)CCCCC2 | 11.1
Cc1cccc(C)c1NC(=O)CCCCCC1NC(=O)NC1C (centres unmarked) | 7.25
CC[C@]12C=CCN3CCC4(c5cc(Br)c(OC)cc5N(C)C4[C@@](O)(C(=O)OC)[C@@H]1OC(C)=O)C32 (some centres unmarked) | 6.43
CCOc1cc(CNc2ccc3cn[nH]c3c2)ccc1OC | 10.8
COc1ccc(S(=O)(=O)N/N=C(/C)c2cccc(NC(=O)c3ccccc3Cl)c2)cc1 | 9.77
COc1cc(NC(=O)COC(=O)CNC(=O)C2CCCCC2)cc(OC)c1 | 10.1
OC1(c2ccccc2)c2ccccc2-c2ncccc21 (centres unmarked) | 5.63
NS(=O)(=O)c1ccc(NCCCn2ccnc2)c([N+](=O)[O-])c1 | 12
O=C(CSc1nccc(-c2ccc(Br)cc2)n1)NCCc1ccccc1 | 14.5
Brc1ccc2oc(-c3ccn[nH]3)cc2c1 | 13
COc1ccc(-c2cc(C#N)nc(Oc3ccc(Cl)cc3)n2)cc1 | 13.4
Cn1c(=O)oc2cc(S(=O)(=O)Nc3cccc([N+](=O)[O-])c3)ccc21 | 14.9
CCOC(=O)c1c(C)[nH]c(C(=O)OCC(=O)NC2CCS(=O)(=O)C2)c1C (centres unmarked) | 5.65
COc1ccc(-n2c(C)nc3cc(C(=O)NCc4ccco4)ccc32)cc1 | 6.81
NC(=O)c1ccc(NC(=O)c2cnc3ccccc3n2)cc1 | 11.9
